Experimental findings from the supplement of paper PMC11417369 are described below.

± gives the standard deviation of the averaged measurements. The list shows a part of the results.

The test system of the assay is PfAP2-I AP2 domain 3 (GST-tagged). In words: gcPBM binding intensity (ln(normalized median fluorescence intensity)); higher = stronger DNA binding. The gist of the method:
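GST-tagged P. falciparum DNA-binding domains, expressed in E. coli (about 25 μg on average), were applied for 1 h to an Agilent 4 × 180k array of primer-extended double-stranded 36-bp intergenic genomic probes plus negative controls. The binding buffer was 1× PBS with 1% milk, 0.2 mg/ml BSA, 0.5% salmon testes DNA and 0.03% Triton X-100. Bound protein was detected with Alexa488 anti-GST antibody and scanned at 488 nm. Binding intensity is the highest Masliner-normalised natural-log median intensity across replicate spots of either probe orientation.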
“CATACTCACCAACACACACACACACCCATATAGAAT [CACACA_site592]”: the “gcPBM binding intensity (ln)” value is 8.19 ± 0.54.
In the case of “CTTTTTGAAATATTAACACACATTTTGTTAATTAAT [CACACA_site4046]”, the “gcPBM binding intensity (ln)” value was found to be 7.85 ± 0.4.
With “CACAGATAAATTAACACACACACACCCATATATATA [CACACA_site3960]” the figure was 8.42 ± 0.67.
Take “TATATTAAAGGGGTTTCACACACATGTATAATTAAT [CACACA_site7950]”: the “gcPBM binding intensity (ln)” value was found to be 7.7 ± 0.65.
“TATTATTTAATCAAATGTACATAGAAAATGTATGTA [XGTACX_site4433]”: the “gcPBM binding intensity (ln)” value was found to be 7.62 ± 0.28.
Consider “ATGTAAAATTAATATTGTACTTTTCCATCATGATAC [XGTACX_site2669]”, for which the “gcPBM binding intensity (ln)” value worked out at 7.67 ± 0.6.
Take “AATAGGAAAGATTTTGCATGTGATATAAGTAATTTT [TGCATGCA_site657]”: the “gcPBM binding intensity (ln)” value was found to be 7.68 ± 0.79.
Take “CATATAATAAATAGATGTACAGACTATATATATATA [XGTACX_site6575]”: the “gcPBM binding intensity (ln)” value came to 9.21 ± 0.3.
Turning to “TTTATATGATACACACGTACATATACACATATACAC [XGTACX_site8123]”, the “gcPBM binding intensity (ln)” value was 8.54 ± 0.67.
Regarding “TATATATATATTTTTGCACACATTTTTTAAGGTACA [CACACA_site2145]”, the “gcPBM binding intensity (ln)” value is 9.64 ± 0.28.
As to “TATAATATTTATATAACACACATATAGATTTATTTA [CACACA_site6269]”, the “gcPBM binding intensity (ln)” value is 7.58 ± 0.3.
With “TACGTAGCCACACTAACACACACAAATATGCACAAT [CACACA_site8942]” the figure was 9.92 ± 0.26; with “ATTAAATACATTAACACACACACAAATATGTACATA [CACACA_site7372]”, 7.93 ± 0.35; with “ATATTATATAATATACGTACATATATTATGCATAAA [XGTACX_site7895]”, 8.41 ± 0.23.
As to “ATAATTTGTGGACACACACACACACCGACATATATA [CACACA_site8718]”, the “gcPBM binding intensity (ln)” value stood at 8.35 ± 0.36.
Next, “TTATTCACTTCTTTTTAAAAAAAAAAAAAAAAAAAA [CACACA_negctrl_site223]”: 8.04 ± 0.83; “TTGTTAATGGTACGAACACACATATAAAGATGCATA [CACACA_site2044]”: 7.68 ± 0.57.
Take “ATTTCGAATATTAAGTGTACAATATAAATATATAAA [XGTACX_site6674]”: the “gcPBM binding intensity (ln)” value was 7.75 ± 0.35.
With “TTATATGAATTTTAGATTTATAATACAAGAATATTC [CACACA_negctrl_site70]”, the “gcPBM binding intensity (ln)” value is 7.27 ± 0.58.
Regarding “AAAAAAAAAAAAAAAAGTACAAATAAAAAAAAAATA [XGTACX_site4814]”, the “gcPBM binding intensity (ln)” value was 8.54 ± 0.39.
With “TATTTATAATAGTGTACACAATTATAAACTGAATAT [CACACA_site6041]” the figure was 8.12 ± 0.39.
As to “TATTATTGTCTTTCAAAAAAAAAAAAAAAAAAAAAA [CACACA_negctrl_site1242]”, the “gcPBM binding intensity (ln)” value was determined as 8.1 ± 0.79.
With “CAACATATATTAATATGTACATATATATAGATATAT [XGTACX_site4107]” the figure was 7.54 ± 0.43; with “TATTATTCATAATTTATCTTTTAAATTAAATCACAA [GTGCAC_negctrl_site288]”, 7.38 ± 0.42; with “TATGTAAAAAATTTAACACACACATATATATATATA [CACACA_site8829]”, 9.47 ± 0.22.
For the sequence “TTACTTAAGAAACACACACACAAAAAAAAAAAAAAA [CACACA_site946]”, the “gcPBM binding intensity (ln)” value was determined as 8.04 ± 0.38.
Consider “ATCATAATCATAAAAAGTACAAACGATAAAATAAAT [XGTACX_site3832]”, for which the “gcPBM binding intensity (ln)” value was 8.01 ± 0.57.
Consider “TTTTTTTCTGTGAGTGCATGTAATAAAATAAATTTA [TGCATGCA_site276]”, for which the “gcPBM binding intensity (ln)” value came out at 9.21 ± 0.13.
With “TTCAAAAATATATAATGTACACAAATATAAAAGAAT [XGTACX_site1944]”, the “gcPBM binding intensity (ln)” value is 8.2 ± 0.38.
On to “TGTTATTTTAAAAAAAAAATTATTAACTTAAAAAAA [CACACA_negctrl_site1641]”, for which the “gcPBM binding intensity (ln)” value stood at 7.29 ± 0.52.
With “AATAATAACACCGTGGATACACAATAACAAAGAACT [CACACA_negctrl_site532]” the figure was 8.14 ± 1.
Take “AAATATTTTTTTTCTACACACATACAAATATATATT [CACACA_site5325]”: the “gcPBM binding intensity (ln)” value is 8.05 ± 0.69.
Regarding “TTTCATTTAGCTTTTACACACTATATATCATTGATT [CACACA_site6158]”, the “gcPBM binding intensity (ln)” value stood at 7.89 ± 0.68.
Next, “TGAGAGTTCTCATATGCACACAAAAAACTTTCATTT [CACACA_site7898]”: 8.51 ± 0.43; “TTGCAACTCTTCAATCGTACACATTATTTATTATAT [XGTACX_site1377]”: 7.97 ± 0.35.
With “TACATATACATATACACACACACACCCAAATAAATA [CACACA_site1344]”, the “gcPBM binding intensity (ln)” value was determined as 8.52 ± 0.54.
Regarding “GAAAAAAAAAAAAAAAAAAAAAGGAAAAAAGTGAAA [CACACA_negctrl_site996]”, the “gcPBM binding intensity (ln)” value came to 7.33 ± 0.68.
For the sequence “GAATAAATAGACGAGTGTACTTTTTTTTAAAAAAAA [XGTACX_site7880]”, the “gcPBM binding intensity (ln)” value turned out to be 8.02 ± 0.26.
Consider “ACGTTTACGTTATTATGTACGTAATATATCATACCT [XGTACX_site5006]”, for which the “gcPBM binding intensity (ln)” value stood at 7.64 ± 0.51.
For the sequence “ATAAAACAATAAAATTGTACATAAATTGATTATACT [XGTACX_site6723]”, the “gcPBM binding intensity (ln)” value came out at 7.58 ± 0.36.
Turning to “AATTAAATTAGAAGCACACACATATTTATATTTATA [CACACA_site7552]”, the “gcPBM binding intensity (ln)” value is 7.93 ± 0.41.
For the sequence “GTATATATTTAAACACGTACACAAAACCCAAAAAAT [XGTACX_site8110]”, the “gcPBM binding intensity (ln)” value is 8.51 ± 0.25.
For the sequence “ATACACTCACTCACACGTACAGACAACGGACGATCA [XGTACX_site1097]”, the “gcPBM binding intensity (ln)” value turned out to be 8.27 ± 0.33.
TTATTATAATCATTAGTGCATATATTATTTTTATAT: the “gcPBM binding intensity (ln)” value turned out to be 9.795 ± 0.049.
On to “TATATACATATATGTACACACATTACAGATGTACAT [CACACA_site966]”, for which the “gcPBM binding intensity (ln)” value was 8.21 ± 0.18.
Next, “AATCTAATATAATGCACACATAAAAAAAAAATCAAA [CACACA_site2714]”: 10.7 ± 0.74; “TATATTTACAATAAAACGTTATTTTTTGTTATTTTC [CACACA_negctrl_site612]”: 7.48 ± 0.48.
Turning to “CATATTTTTAAATACACACACATAAAAAAAAAAAAA [CACACA_site1095]”, the “gcPBM binding intensity (ln)” value stood at 8.04 ± 0.36.
For “TTTTTTTTAAAAAACACACACCTAAACAAGATATTT [CACACA_site6541]”, the “gcPBM binding intensity (ln)” value amounted to 7.93 ± 0.57.
As for “AAAAATATAAACTGCACACACACAAAAAAAGAAAAA [CACACA_site648]”, the “gcPBM binding intensity (ln)” value was determined as 8.82 ± 0.14.
With “AAATAAAAAAGTAGTACACACTTCACGATATTTTTT [CACACA_site6015]” the figure was 7.89 ± 0.43; with “TAAGAATAATGACATAGTACAATTTAATAGATCTAA [XGTACX_site3670]”, 7.37 ± 0.55; with “AAGTTTATTTGTTGCACACATATAAGTAGAGAAAAT [CACACA_site3027]”, 9.42 ± 0.071.
As to “TTTTCAAAATAATATTATATCAAATGCTAAAAAGAA [TGCATGCA_negctrl_site588]”, the “gcPBM binding intensity (ln)” value amounted to 7.86 ± 0.49.
Consider “TTACGTTATATACATACACACCCACGCACAAAAAAA [CACACA_site6537]”, for which the “gcPBM binding intensity (ln)” value turned out to be 8.7 ± 0.4.
On to “TACAGATATTATTGCACACATATAAAATACCCCCAA [CACACA_site6014]”, for which the “gcPBM binding intensity (ln)” value is 10.4 ± 0.47.
